In all, about 48,000 compounds went through this assay and about 120 (0.25%) were called active. About 4% were inconclusive and are not listed. The call rests on the fitted dose curve; in most records, active means well fitted activation curve with a large enough effect; inconclusive means small, poorly fitted or top-dose-only effect, or another doubt; inactive means no such curve, though single readings can be large or run the other way. The list shows a part of the results.
Assay: Primary qHTS for Identification of Small Molecule Activators of Huntingtin-Antisense Promoter Activity; further: nearly all actives have a fitted effect of over 55% in size
Conditions: HEK293 HTT-AS promoter firefly luciferase reporter, 24 h; series mostly up to 57.5 µM; activity change, positive = activation: at the top concentration
How it was run: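 Firefly luciferase signal from promoter-reporter HEK293 cells was scaled between vehicle (0%) and zero RLU (-100%). Compounds were tested at final concentrations of up to 57.5 uM over 24 h at 37 degrees C. PTC124 at 50 uM final served as control inhibitor.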

Activity change, positive = activation, inactive:
O=C(Cc1ccccc1)NCCc1csc2nc(-c3ccc(Cl)cc3)nn12 -35.6%
COc1ccccc1CNS(=O)(=O)c1ccc2c(c1)NC(=O)CC(=O)N2 -5.48%
Cc1ccc(-n2nc(C)c3c(C(=O)NCc4ccccc4)cc(C4CC4)nc32)cc1 -24%
COc1ccccc1Nc1nn2c(=O)c3ccc(C(=O)N4CCCC(C)C4)cc3nc2s1 (stereo not given) -36.5%
Cc1ccc(S(=O)(=O)NCc2nc(-c3cccc(C)c3)no2)cc1 -30.5%
COc1ccc(C2CC(=O)N(Cc3cccc(F)c3)c3ccccc3S2)cc1 (stereo not given) -53.9%
CCCCNC(=O)CCCn1c(=O)c2ccccc2n(CC(=O)Nc2ccccc2OCC)c1=O -12.6%
CCCc1cnc2c(c1SCC(=O)Nc1ccc(C)c(Cl)c1)c(=O)n(C)c(=O)n2C -29.5%
COc1cc(/C=C(\C#N)c2nc3ccccc3[nH]2)ccc1OCc1cccc(C(F)(F)F)c1 -53.9%
CCOc1ccccc1NC(=O)c1ccc(F)c(S(=O)(=O)NCc2ccc3c(c2)OCO3)c1 -20.6%
CCOc1ccccc1NC(=O)N1CCc2c(sc(C)c2CC)C1c1ccccc1 (stereo not given) 0%
COc1ccc(CNc2ncnc3onc(-c4ccc(F)cc4)c23)cc1 -33.9%
CN(C(=O)Cn1cc(S(=O)(=O)Cc2ccccc2Cl)c2ccccc21)c1ccccc1 -26.5%
COc1ccc(-c2nn3c(-c4ccccc4C)nnc3c3ccccc23)cc1 -49.4%
Cc1ccc(Cl)cc1N1CCN(S(=O)(=O)c2ccc3c(c2)CC(C)N3C(=O)C2CCC2)CC1 (stereo not given) -11.3% [at 11.5 µM, percent change from vehicle, -100% = no light]
CCOCCCNc1ncnc2onc(C)c12 -8.27%
CC(=O)c1ccc(NC(=O)c2sc(-n3nc(C)c(Cc4ccccc4)c3C)nc2C)cc1 0.211%
Cc1cccc(NC(=O)Nc2nnc(N(C)Cc3ccccc3)s2)c1 -21.3%
Cn1c(=O)c2c(ncn2CC(=O)Nc2cccc(Cl)c2Cl)n(C)c1=O -8.26%
Cc1ccccc1C(=O)NC1(C(F)(F)F)C(=O)Nc2c1c(=O)[nH]c(=O)n2-c1ccc(F)cc1 (stereo not given) 2.31%
Cc1noc(/C=C/c2cccs2)c1S(=O)(=O)N1CCC(C(=O)NCc2ccccc2Cl)CC1 -14.8%
CCN(Cc1ccccc1)Cc1c(O)ccc2c(=O)c(-c3ccc(Cl)cc3Cl)coc12 -22.3%
CCOC(=O)c1cccc(NC(=O)C2Cc3ccccc3N2C(=O)c2ccccc2)c1 (stereo not given) -7.55%
O=C(OCc1ccccc1)c1ccccc1 14.8%
CCOc1ccc(C(=O)NC2CC(=O)N(c3ccc(C)cc3)C2)cc1OCC (stereo not given) -5.31%
Cc1ccc(-c2nc(NC(=O)CSc3nc(C)nc4sc5c(c34)CCCC5)ns2)cc1 -7.15%
CC1CCN(S(=O)(=O)c2ccc3c(ccn3CCC(=O)NCc3ccccc3F)c2)CC1 -3.48%
Cc1sc2c(c1C)c(=O)n(Cc1ccccc1)c(=O)n2Cc1ccc(F)cc1 5.29%
COc1ccc(NC(=O)c2c(-c3ccccc3)c(-c3ccccc3)nn(C)c2=O)cc1OC 3.71%
Cc1ccc(C)c(Cn2c(=O)n(C(C)C)c(=O)c3oc4ccccc4c32)c1 -5.8%
Cc1ccccc1CNC(=O)CN1C(=O)C2CCCCN2c2ccc(C(=O)N3CCCC3)cc21 (stereo not given) -13.9%
Cc1ccccc1NC(=O)CCS(=O)(=O)c1cc(Br)cc2c1N(C(=O)C1CC1)CC2 -9.27%
CCc1nn(CC(=O)N2CCCCC2)c(=O)c2cc3sc(C)cc3n12 0.835%
O=C(Nc1ccc2c(c1)N(C1CCCC1)C(=O)c1ccccc1S2)c1ccccc1F -35.2%
Cc1ccccc1OCC(=O)Nc1cccc(C(=O)OCc2cc(=O)n3c(C)csc3n2)c1 -35.8%
Cc1ccc(S(=O)(=O)Cc2ccc(C(=O)N3CCN(c4cccc(Cl)c4)CC3)o2)cc1 -44.5%
O=C(Cn1c(=O)n(-c2ccc(Cl)cc2)c(=O)c2sc3ccccc3c21)NC1CCCC1 -5.39%
COC(=O)c1ccccc1NC(=O)c1cc2cc(C)ccc2n1C -25.4%
CCOc1ccc(-c2c(C)nn3c(C)c(C(=O)NCCc4ccc(Cl)cc4)cnc23)cc1OCC -36.9%
c1ccc(CN2CCN(c3ncnc4c3cnn4-c3ccccc3)CC2)cc1 12.9%
CCc1nc2cccnc2n1-c1ccc(CC(=O)Nc2cccc(C)c2C)cc1 -22%
CCC1=Nc2cc(C(=O)NCCN(CC)CC)ccc2Sc2ccccc21 -7.96%
Cc1ccc(NC(=O)c2cc(S(=O)(=O)N3CCc4ccccc43)cn2C)c(Cl)c1 -37.1%
CCc1cccc(NC(=O)C2CCC(CNS(=O)(=O)c3ccc(Br)s3)CC2)c1 (stereo not given) -28%
CCc1ccc(-n2nc(CO)c(C(=O)NCCCc3ccccc3)n2)cc1 -5.24%
Cc1ccc(C)c(S(=O)(=O)c2nnn3c2nc(NC2CCCCC2)c2sccc23)c1 -48.5%
Cc1ccccc1Cn1c2ccccc2c2cnn(CC(=O)NCc3ccccn3)c(=O)c21 -14.9%
Cc1ccc(C)c(N2CCN(C(=O)NCc3noc4ccc(C)cc34)CC2)c1 -30.6%
O=C(NCCc1ccccc1)C1CCC(CNS(=O)(=O)c2ccc(Cl)cc2)CC1 (stereo not given) 21%
COc1ccc(-c2cc(-c3ccccc3)nc3c2COc2ccc(F)cc2-3)cc1 -9.34%
CCN(CC)C(=O)Cn1c(=O)cc(C)c2c(C)nn(-c3ccc(C)cc3)c21 -9.94%
Cc1ccc(CSc2ncc(Cl)c(C(=O)NCc3ccccc3)n2)cc1 -6.8%
CC(C)c1nn2c(=O)cc(COC(=O)c3ccc(NC(=O)C4CCCCC4)cc3)nc2s1 -1.66%
COc1ccc2[nH]c3c(c2c1)CCN(C(=O)c1cccc(Cl)c1)C3c1ccc(F)cc1 (stereo not given) -36.7%
Cc1ccc(S(=O)(=O)N2CCCc3cc(NS(=O)(=O)c4cc(C)ccc4C)ccc32)cc1 -26.5%
COc1ccc(-c2cn3cccnc3n2)cc1NC(=O)Nc1ccc(Cl)cc1 24.9%
Cc1ccc(C(=O)c2oc3ccccc3c2NC(=O)COc2ccc(C(C)C)cc2)cc1 -8.32%
O=C(Nc1ccc(S(=O)(=O)Nc2ncccn2)cc1)c1cc(=O)c2ccccc2o1 2.4%
CCOc1ccc(NC(=O)c2ccc3c(c2)CCN3S(=O)(=O)CC)cc1 -29.8%
CCc1ccc(NC(=O)CN2C(=O)C(c3ccc(C)cc3)=NC23CCCCC3)cc1 -27.4%
